This passage reports nonsense suppression results from the RNAGym collection of RNA variant scans (doi:10.1101/gad.245936.114).

The chains are these.
B1: tRNA (parent)
chain: CUCUCGGUAGCCAAGUUGGUUUAAGGCGCAAGACUUUAAUUUAUCACUACGAAAUCUUGAGAUCGGGCGUUCGACUCGCCCCCGGGAGAUUUUUUCCUCGAGCAA

Variants at the floor of the assay are shown more often than the library holds them.

Variants of B1 are the subject of the series. Nature of the series: nonsense suppression (GFP-seq) (ratio to wild type); higher = more function; SUP4oc tRNA, yeast GFP reporter sort-seq. A digest of the protocol: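 Sorted GFP/RFP bins of yeast were each Illumina-sequenced with a phred ≥30 cutoff; the cells held a genome-integrated ochre-suppressor tRNA variant from a library with ~3% random mutations, a galactose-driven GFP ochre reporter, and RFP. Culture was in raffinose/galactose medium containing 80 mg/L adenine. Nonsense suppression, termed GFPSEQ, is the median GFP/RFP of the bins weighted by each variant's estimated cell share per bin, relative to the unmutated parent tRNA, for variants reaching ≥100 reads and ≥30 cells.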
Consider A33G A62C, for which the nonsense suppression was at most 0.026.
To U2G C11A belongs at most 0.026; to G73C U76A, at most 0.026.
The figure for A31U G32A A60C C80G is at most 0.026; for G61A A62C it is 0.0863.
On to G7U G26A C34G, for which the nonsense suppression was at most 0.026.
To C3A G28C C34G U58C G86C belongs at most 0.026; to A9G U17G U21G G88A, at most 0.026; to U2A A33C, at most 0.026.
To A31C belongs at most 0.026.
To A54G G67U C68A belongs at most 0.026; to G19U A24C G67C C80U C82U, at most 0.026.
As for A23C A33C, the nonsense suppression was at most 0.026.
In the case of A14C C68G, the nonsense suppression was at most 0.026.
In the case of A23G G28A U76C, the nonsense suppression was at most 0.026.
Consider G59C C77G, for which the nonsense suppression was at most 0.026.
To G10C A14U belongs at most 0.026; to A62C C79A, at most 0.026.
With G10U A23G, the nonsense suppression is at most 0.026.
To C11G A14G belongs at most 0.026; to C3G A54C, 0.0677.
For the variant U35G U58A, the nonsense suppression is at most 0.026.
The figure for A14C U35A is at most 0.026; for U4C A24C it is 1.06; for U4C A24U it is 0.84.
G19C G73A G86A: the nonsense suppression was at most 0.026.
To A54U C82G belongs at most 0.026; to G66U A89C, at most 0.026.
Take A13C G61A C75G: the nonsense suppression was found to be 0.761.
As to C1A U55A U57G A89G, the nonsense suppression was at most 0.026.
For the variant G19U U55C, the nonsense suppression was at most 0.026.
The figure for G19C G85U is at most 0.026; for C5U G15U U55G U70C it is at most 0.026.
U35G U70A C79A: the nonsense suppression was at most 0.026.
With G61A G67A C79G, the nonsense suppression is at most 0.026.
In the case of G61C G88C, the nonsense suppression was at most 0.026.
To G10A U20G A62C C82A belongs at most 0.026; to G7C G67A, at most 0.026; to C12G G59U G84A, at most 0.026.
To U70C G78U A89U belongs at most 0.026; to U22A A24U G65A U70G, at most 0.026.
Regarding C1U U17C U58A U70C, the nonsense suppression was at most 0.026.
For the variant A14U G59C C79A G88U, the nonsense suppression was at most 0.026.
To C75A G85A belongs 1.05; to G7C G32U, at most 0.026.
The figure for U4A A13C C56U is at most 0.026; for U57C G88U it is at most 0.026; for A33G U35A U58A it is at most 0.026.
The figure for C12A C27A is at most 0.026; for C1G A23U it is at most 0.026.
In the case of U4G A9U A31C U63G, the nonsense suppression is at most 0.026.
The figure for U4A A31U G78C is at most 0.026; for C11A C29A U63C it is at most 0.026; for A54C G65U it is 0.0425.
The figure for G10U C64A G85C is at most 0.026; for C56G U57A it is at most 0.026; for C3U G6U A23U G26U C77U it is at most 0.026.
The figure for U21G A33G C34U G65C is at most 0.026; for A13G U16G U20A A24C C75U C81G it is at most 0.026; for G59U A89U it is at most 0.026.
For U8G, the nonsense suppression was at most 0.026.
The figure for U2A A74G is at most 0.026; for U2G U21G G78U it is at most 0.026; for G18C G61U A74C it is at most 0.026.
To G25C G86C belongs at most 0.026.
The figure for U8G G32C U71C C75G is at most 0.026.
In the case of U76G C77G, the nonsense suppression is at most 0.026.
G25A U70G C77U: the nonsense suppression was at most 0.026.
To U55A G66A C68G G69A belongs at most 0.026; to C12U G61U, 0.248; to A9U C34A, at most 0.026.
To C12G C68A G85C belongs at most 0.026.
On to G28U A54U, for which the nonsense suppression is at most 0.026.
Turning to C5A C11G C80A G84C, the nonsense suppression was at most 0.026.
The figure for U2G C72A is at most 0.026.
Regarding C3G U4G A24C, the nonsense suppression was at most 0.026.
The figure for A13U C29U C81U is 0.0757.
The figure for C5G C12G U16C G32A is at most 0.026.
As for U8G U58C A60U G66A G86A, the nonsense suppression is at most 0.026.
On to C1A U63G G66C A74U, for which the nonsense suppression is at most 0.026.
Turning to C12G C68G G69U A89U, the nonsense suppression was determined as 0.0702.
Regarding A23U G26A, the nonsense suppression was at most 0.026.
As for C11A A23G U63G, the nonsense suppression was at most 0.026.
With G67C G88U, the nonsense suppression is at most 0.026.
To G25A C72G belongs at most 0.026; to A33U A62U G66C, at most 0.026.
The figure for C29G G88U is at most 0.026; for U17G A54U it is 1.16; for A14U U20C A24G C75G it is at most 0.026.
On to U21A A33U C68A, for which the nonsense suppression is at most 0.026.
Take C3G U57G G59A C64U: the nonsense suppression is at most 0.026.
For U8C G84U, the nonsense suppression is at most 0.026.
To G25U C56A C64A belongs at most 0.026.
To U55G G69A belongs at most 0.026; to U22G G66A U76G, at most 0.026.
As to C1G G28A C83A, the nonsense suppression was at most 0.026.
The figure for C27G A31G C64U C80U is at most 0.026; for A31G A74U U76A it is at most 0.026.
The figure for G7C U17C is at most 0.026.
In the case of A9G C79A G88C, the nonsense suppression is at most 0.026.
In the case of A9U G15C U22A, the nonsense suppression was at most 0.026.
To U2G G15U G73A belongs at most 0.026; to U21A U55C G61A G86C, at most 0.026.
To U35A G85C belongs at most 0.026; to G7C C12A C29U, at most 0.026.
To G10A U22A A31G U70A belongs at most 0.026; to G59C C79A, at most 0.026; to U17A G25U A31U G86A, at most 0.026.
U2A G6C C81G: the nonsense suppression is at most 0.026.
As for C34A U57G A62U, the nonsense suppression was at most 0.026.
To U20G G69A belongs at most 0.026; to A30G A54C, 0.077.
On to C3A U21C, for which the nonsense suppression was at most 0.026.
The figure for C1U G7U U20C A54C is at most 0.026.
For U2C C5U A14C C72G, the nonsense suppression was at most 0.026.
As to A13G G61U G67C C83G, the nonsense suppression was at most 0.026.
The figure for U17C U22C A60G is 0.348; for G65A C79A it is at most 0.026; for U20C G26U A30U C34A U58G it is at most 0.026.
To U57A U58C C81G belongs at most 0.026; to U16G G65U, at most 0.026.
The figure for G26U G88C is at most 0.026.
Take G18U A23U U63G: the nonsense suppression is at most 0.026.
The figure for A9G U63C A74U C75U C79U is at most 0.026.
The figure for G67C G85U is at most 0.026; for U2G U71A it is at most 0.026.
On to C27A U55C, for which the nonsense suppression is 0.0902.
To A24C C79U belongs 0.209; to A9C G66A, at most 0.026; to C3A G59C, at most 0.026.
As to A74G C82A, the nonsense suppression was at most 0.026.
The figure for G6U A13U is at most 0.026.
The figure for G28U C83U is at most 0.026; for G32C A60U U63A G67A it is at most 0.026.
Take G18U A60U U76G: the nonsense suppression is at most 0.026.
The figure for A9G G28C U76G is at most 0.026; for U22C A60C G61A it is 0.176.
To C27G U35C C56U G67U U71C belongs at most 0.026.
For the variant C12U A23G G32C, the nonsense suppression was at most 0.026.
The figure for A24G G66U C83A is at most 0.026; for C3G U57C G66A C77A it is at most 0.026.
To A30U U35G G65U belongs at most 0.026; to C1A C27G A60G, at most 0.026.
G10U A87C: the nonsense suppression was at most 0.026.
The figure for C34G G59U is at most 0.026.
The figure for G19U U76A is at most 0.026.
To G65A G84U belongs at most 0.026.
For the variant G32U C64A, the nonsense suppression is at most 0.026.
To G25A C79G belongs at most 0.026.
The figure for C12G A14C U57G C75G G78A is at most 0.026; for G15C A23G it is at most 0.026; for U16G U55A it is at most 0.026.
On to U17C G18C G19U, for which the nonsense suppression was at most 0.026.
Take U58A U71A C83U: the nonsense suppression is at most 0.026.
Turning to A33G U55G G65C G73A G85C A87C, the nonsense suppression was at most 0.026.
The figure for G19U A31G C75G is at most 0.026; for C12U A14C U16A it is at most 0.026; for U2G G6A G18U C29G G61A G65A G85U it is at most 0.026.
For C1A C27U U55G U57G G69A, the nonsense suppression was at most 0.026.
As to A9U A14C A30G, the nonsense suppression was at most 0.026.
To U16C A54U G65A G88C belongs at most 0.026.
Turning to U55C U70C C75A A87G, the nonsense suppression was at most 0.026.
Turning to G61C G67U G73U, the nonsense suppression is at most 0.026.
The figure for U4C C11G C12U U57C is at most 0.026.
To A13U G65A belongs at most 0.026.
For the variant G25U U57G, the nonsense suppression was at most 0.026.
To G6C G65C G73C C75A belongs at most 0.026.
